Results reported in the supplement of paper PMC4967469.
A lower IC50 marks a more sensitive line; where the fit passes the top or lowest dose, that dose stands as a limit. AUC is the area under the same curve over the 256-fold range up to the top dose, as a fraction; the more sensitive the line, the further below 1. For some of these results: Where the top dose is marked as inferred, it was calculated from the reported fits.

How the values were obtained:
Assay in all cases: Viability of human cancer cell lines after 72 h of drug (GDSC screen)
BMX-IN-1 (QL-XII-61) = compound: C=CC(=O)Nc1cc(-n2c(=O)ccc3cnc4ccc(-c5ccc(NS(C)(=O)=O)cc5)cc4c32)ccc1C [BMX-IN-1 (QL-XII-61)]; details: top dose 10 µM; top dose inferred
Method: (§1)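 Human cancer cell lines in 384-well plates, medium with 10% serum, drug for 72 h over a 256-fold dose range (nine 2-fold or five 4-fold steps up to the top dose). Adherent lines were fixed and stained with the nucleic acid dye Syto60, suspension lines read with resazurin; signal relative to control wells, capped at 0 and 100%. One two-parameter sigmoid per drug and line, fitted in a mixed model over all curves with the slope shared within a line.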

17-AAG = compound: C=CCNC1=C2C[C@@H](C)C[C@H](OC)[C@H](O)[C@@H](C)/C=C(\C)[C@H](OC(N)=O)[C@@H](OC)/C=C\C=C(/C)C(=O)NC(=CC1=O)C2=O [17-AAG]; details: top dose 1 µM
Method: as §1

CCT018159 = compound: CCc1cc(-c2n[nH]c(C)c2-c2ccc3c(c2)OCCO3)c(O)cc1O [CCT018159]; details: top dose 10 µM; top dose inferred
Method: as §1

BIX02189 = compound: CN(C)Cc1cccc(N=C(c2ccccc2)c2c(O)[nH]c3cc(C(=O)N(C)C)ccc23)c1 [BIX02189]; details: top dose 20 µM; top dose inferred
Method: as §1

Dimethyloxalylglycine = compound: COC(=O)CNC(=O)C(=O)OC [Dimethyloxalylglycine]; details: top dose 4000 µM; top dose inferred
Method: as §1

Doxorubicin = compound: COc1cccc2c1C(=O)c1c(O)c3c(c(O)c1C2=O)C[C@@](O)(C(=O)CO)C[C@@H]3O[C@H]1C[C@H](N)[C@H](O)[C@H](C)O1 [Doxorubicin]; details: top dose 1.024 µM
Method: as §1

OSI-027 = compound: COc1cccc2cc(-c3nc([C@H]4CC[C@H](C(=O)O)CC4)n4ncnc(N)c34)[nH]c12 [OSI-027]; details: top dose 20 µM
Method: as §1

Vismodegib = compound: CS(=O)(=O)c1ccc(C(=O)Nc2ccc(Cl)c(-c3ccccn3)c2)c(Cl)c1 [Vismodegib]; details: top dose 10 µM; top dose inferred
Method: as §1

VX-11e = compound: Cc1cnc(Nc2ccc(F)cc2Cl)nc1-c1c[nH]c(C(=O)N[C@H](CO)c2cccc(Cl)c2)c1 [VX-11e]; details: top dose 5.12 µM; top dose inferred
Method: as §1

TG101348 = compound: Cc1cnc(Nc2ccc(OCCN3CCCC3)cc2)nc1Nc1cccc(S(=O)(=O)NC(C)(C)C)c1 [TG101348]; details: top dose 10.24 µM
Method: as §1

UNC1215 = compound: O=C(c1ccc(C(=O)N2CCC(N3CCCC3)CC2)c(Nc2ccccc2)c1)N1CCC(N2CCCC2)CC1 [UNC1215]; details: top dose 1 µM; top dose inferred
Method: as §1

## H2869 (mesothelioma, adherent)
BMX-IN-1 (QL-XII-61)
  AUC: 0.974
  IC50: > 10 µM
17-AAG
  AUC: 0.984
  IC50: > 1 µM
CCT018159
  AUC: 0.984
  IC50: > 10 µM
BIX02189
  AUC: 0.902
  IC50: > 20 µM
Dimethyloxalylglycine
  AUC: 0.479
  IC50: 216 µM
Doxorubicin
  AUC: 0.711
  IC50: 0.295 µM
OSI-027
  AUC: 0.292
  IC50: 0.278 µM
Vismodegib
  AUC: 0.984
  IC50: > 10 µM
VX-11e
  AUC: 0.982
  IC50: > 5.12 µM
TG101348
  AUC: 0.584
  IC50: 1.15 µM
UNC1215
  AUC: 0.981
  IC50: > 1 µM

## LXF-289 (lung adenocarcinoma, adherent)
BMX-IN-1 (QL-XII-61)
  AUC: 0.976
  IC50: > 10 µM
17-AAG
  AUC: 0.35
  IC50: 0.0242 µM
CCT018159
  AUC: 0.952
  IC50: > 10 µM
BIX02189
  AUC: 0.975
  IC50: > 20 µM
Dimethyloxalylglycine
  AUC: 0.508
  IC50: 263 µM
Doxorubicin
  AUC: 0.439
  IC50: 0.0437 µM
OSI-027
  AUC: 0.757
  IC50: 6.77 µM
Vismodegib
  AUC: 0.987
  IC50: > 10 µM
VX-11e
  AUC: 0.982
  IC50: > 5.12 µM
TG101348
  AUC: 0.79
  IC50: 4.49 µM
UNC1215
  AUC: 0.984
  IC50: > 1 µM

## OCI-AML3 (acute myeloid leukaemia, suspension)
BMX-IN-1 (QL-XII-61)
  AUC: 0.634
  IC50: 1.38 µM
17-AAG
  AUC: 0.919
  IC50: > 1 µM
CCT018159
  AUC: 0.945
  IC50: > 10 µM
BIX02189
  AUC: 0.837
  IC50: 10.7 µM
Dimethyloxalylglycine
  AUC: 0.514
  IC50: 271 µM
Doxorubicin
  AUC: 0.712
  IC50: 0.228 µM
OSI-027
  AUC: 0.174
  IC50: 0.158 µM
Vismodegib
  AUC: 0.981
  IC50: > 10 µM
VX-11e
  AUC: 0.626
  IC50: 0.673 µM
TG101348
  AUC: 0.66
  IC50: 1.66 µM
UNC1215
  AUC: 0.99
  IC50: > 1 µM

## SNU-C2B (large intestine, adherent)
BMX-IN-1 (QL-XII-61)
  AUC: 0.978
  IC50: > 10 µM
17-AAG
  AUC: 0.853
  IC50: > 1 µM
CCT018159
  AUC: 0.926
  IC50: > 10 µM
BIX02189
  AUC: 0.952
  IC50: > 20 µM
Dimethyloxalylglycine
  AUC: 0.872
  IC50: > 4000 µM
Doxorubicin
  AUC: 0.765
  IC50: 0.493 µM
OSI-027
  AUC: 0.849
  IC50: > 20 µM
Vismodegib
  AUC: 0.969
  IC50: > 10 µM
VX-11e
  AUC: 0.816
  IC50: 4.04 µM
TG101348
  AUC: 0.864
  IC50: > 10.2 µM
UNC1215
  AUC: 0.978
  IC50: > 1 µM

## ES5 (Ewing sarcoma, adherent)
BMX-IN-1 (QL-XII-61)
  AUC: 0.946
  IC50: > 10 µM
17-AAG
  AUC: 0.895
  IC50: > 1 µM
CCT018159
  AUC: 0.9
  IC50: > 10 µM
BIX02189
  AUC: 0.883
  IC50: > 20 µM
Dimethyloxalylglycine
  AUC: 0.637
  IC50: 634 µM
Doxorubicin
  AUC: 0.839
  IC50: 0.853 µM
OSI-027
  AUC: 0.164
  IC50: 0.0967 µM
Vismodegib
  AUC: 0.946
  IC50: > 10 µM
VX-11e
  AUC: 0.914
  IC50: > 5.12 µM
TG101348
  AUC: 0.503
  IC50: 0.654 µM
UNC1215
  AUC: 0.979
  IC50: > 1 µM

## SR (lymphoid neoplasm, suspension)
BMX-IN-1 (QL-XII-61)
  AUC: 0.827
  IC50: 5.29 µM
17-AAG
  AUC: 0.53
  IC50: 0.0747 µM
CCT018159
  AUC: 0.863
  IC50: 7.26 µM
BIX02189
  AUC: 0.783
  IC50: 7.53 µM
Dimethyloxalylglycine
  AUC: 0.069
  IC50: < 15.6 µM
Doxorubicin
  AUC: 0.303
  IC50: 0.0191 µM
OSI-027
  AUC: 0.087
  IC50: < 0.0781 µM
Vismodegib
  AUC: 0.973
  IC50: > 10 µM
VX-11e
  AUC: 0.901
  IC50: > 5.12 µM
TG101348
  AUC: 0.436
  IC50: 0.435 µM
UNC1215
  AUC: 0.987
  IC50: > 1 µM

## JHU-022 (head and neck, adherent)
BMX-IN-1 (QL-XII-61)
  AUC: 0.977
  IC50: > 10 µM
17-AAG
  AUC: 0.448
  IC50: 0.0434 µM
CCT018159
  AUC: 0.855
  IC50: > 10 µM
BIX02189
  AUC: 0.975
  IC50: > 20 µM
Dimethyloxalylglycine
  AUC: 0.772
  IC50: 1970 µM
Doxorubicin
  AUC: 0.79
  IC50: 0.595 µM
OSI-027
  AUC: 0.881
  IC50: > 20 µM
Vismodegib
  AUC: 0.962
  IC50: > 10 µM
VX-11e
  AUC: 0.951
  IC50: > 5.12 µM
TG101348
  AUC: 0.872
  IC50: > 10.2 µM
UNC1215
  AUC: 0.979
  IC50: > 1 µM

## KGN (ovary, adherent)
BMX-IN-1 (QL-XII-61)
  AUC: 0.924
  IC50: > 10 µM
17-AAG
  AUC: 0.905
  IC50: > 1 µM
CCT018159
  AUC: 0.899
  IC50: > 10 µM
BIX02189
  AUC: 0.782
  IC50: 10.3 µM
Dimethyloxalylglycine
  AUC: 0.276
  IC50: 49.8 µM
Doxorubicin
  AUC: 0.194
  IC50: 0.00621 µM
OSI-027
  AUC: 0.131
  IC50: < 0.0781 µM
Vismodegib
  AUC: 0.974
  IC50: > 10 µM
VX-11e
  AUC: 0.866
  IC50: > 5.12 µM
TG101348
  AUC: 0.675
  IC50: 2.21 µM
UNC1215
  AUC: 0.978
  IC50: > 1 µM

## NCI-H446 (small cell lung carcinoma, semi-adherent)
BMX-IN-1 (QL-XII-61)
  AUC: 0.969
  IC50: > 10 µM
17-AAG
  AUC: 0.982
  IC50: > 1 µM
CCT018159
  AUC: 0.958
  IC50: > 10 µM
BIX02189
  AUC: 0.938
  IC50: > 20 µM
Dimethyloxalylglycine
  AUC: 0.642
  IC50: 638 µM
Doxorubicin
  AUC: 0.902
  IC50: > 1.02 µM
OSI-027
  AUC: 0.202
  IC50: 0.152 µM
Vismodegib
  AUC: 0.96
  IC50: > 10 µM
VX-11e
  AUC: 0.985
  IC50: > 5.12 µM
TG101348
  AUC: 0.655
  IC50: 1.79 µM
UNC1215
  AUC: 0.98
  IC50: > 1 µM

## OVISE (ovary, adherent)
BMX-IN-1 (QL-XII-61)
  AUC: 0.977
  IC50: > 10 µM
17-AAG
  AUC: 0.981
  IC50: > 1 µM
CCT018159
  AUC: 0.967
  IC50: > 10 µM
BIX02189
  AUC: 0.926
  IC50: > 20 µM
Dimethyloxalylglycine
  AUC: 0.737
  IC50: 1520 µM
Doxorubicin
  AUC: 0.64
  IC50: 0.178 µM
OSI-027
  AUC: 0.442
  IC50: 0.826 µM
Vismodegib
  AUC: 0.957
  IC50: > 10 µM
VX-11e
  AUC: 0.956
  IC50: > 5.12 µM
TG101348
  AUC: 0.818
  IC50: 8.36 µM
UNC1215
  AUC: 0.977
  IC50: > 1 µM

## WM35 (melanoma, adherent)
BMX-IN-1 (QL-XII-61)
  AUC: 0.985
  IC50: > 10 µM
17-AAG
  AUC: 0.804
  IC50: 0.503 µM
CCT018159
  AUC: 0.977
  IC50: > 10 µM
BIX02189
  AUC: 0.945
  IC50: > 20 µM
Dimethyloxalylglycine
  AUC: 0.596
  IC50: 460 µM
Doxorubicin
  AUC: 0.623
OSI-027
  AUC: 0.124
  IC50: < 0.0781 µM
Vismodegib
  AUC: 0.876
  IC50: > 10 µM
VX-11e
  AUC: 0.652
  IC50: 0.849 µM
TG101348
  AUC: 0.778
  IC50: 4.18 µM
UNC1215
  AUC: 0.985
  IC50: > 1 µM
